# About 3,600 (1.6%) of roughly 230,000 compounds were called active. This list was built around the results that the source calls inconclusive (neither active nor inactive); the mix of calls is not that of the screen. Calls follow the shape of the dose curve; as a rule, active = well fitted inhibition curve with a large enough effect (not every such curve was filed as active); inconclusive = small, poorly fitted or top-dose-only effect, or another doubt; inactive = no such curve, though single readings can be large or run the other way. Where the call is inconclusive, the potency comes from a doubtful curve fit.
# Target: Lysine-specific demethylase 4E (Homo sapiens) (UniProt B2RXH2)
# UniProt B2RXH2, sequence (B2RXH2 whole entry, looked up, the tested form may be a part): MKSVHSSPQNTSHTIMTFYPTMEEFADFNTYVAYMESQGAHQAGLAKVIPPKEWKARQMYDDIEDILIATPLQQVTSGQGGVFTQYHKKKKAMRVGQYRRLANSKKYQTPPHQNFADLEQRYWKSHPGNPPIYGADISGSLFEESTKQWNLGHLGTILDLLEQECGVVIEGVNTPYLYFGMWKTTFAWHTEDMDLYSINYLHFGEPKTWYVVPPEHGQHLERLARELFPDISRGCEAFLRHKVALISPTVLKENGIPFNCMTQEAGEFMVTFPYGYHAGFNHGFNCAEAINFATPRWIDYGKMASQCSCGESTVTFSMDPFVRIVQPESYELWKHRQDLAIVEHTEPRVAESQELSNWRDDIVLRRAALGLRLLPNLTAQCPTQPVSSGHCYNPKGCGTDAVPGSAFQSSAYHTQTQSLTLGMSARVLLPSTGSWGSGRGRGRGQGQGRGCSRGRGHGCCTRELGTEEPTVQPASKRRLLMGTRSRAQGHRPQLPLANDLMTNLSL
# Assay: qHTS Assay for Inhibitors of Human Jumonji Domain Containing 2E (JMJD2E)
# Details: JMJD2E catalytic domain, FDH-coupled NADH fluorescence (FDH is formaldehyde dehydrogenase); series mostly up to 57.1 µM; activity change, negative = inhibition: at the top concentration
# Also: nearly all actives have a fitted effect of over 50% in size.
# 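For activity change, negative = inhibition in this document: 0% = wells with enzyme and -100% = buffer wells without enzyme.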
# Potency is read from the fitted curve at half-maximal effect; tags tell the direction and shape of the fitted curve.
Compound,Potency,"activity change, negative = inhibition"
Cc1[nH]c(=S)c(C#N)c(C)c1C(=O)Nc1ccccc1,"inconclusive: 39.8 µM [inhibitor, single point]",–
COC(=O)C(NC(C)=O)(Nc1ccc(Br)cn1)C(F)(F)F (centres undefined),–,inactive: 4.3%
O=S(=O)(c1ccc(Cl)cc1)N1CCN(c2ccc(N3CCOCC3)nn2)CC1,"inconclusive: 20 µM [inhibitor, single point]",–
c1ccc(-n2c(-c3ccco3)nnc2-c2ccco2)cc1,"inconclusive: 28.2 µM [inhibitor, partial curve]",–
COc1cccc(OC)c1C(=O)N1CCN(Cc2ccccc2C)CC1,"inconclusive: 28.2 µM [inhibitor, single point]",–
COc1cc2c(cc1OC)[C@@H]1C(=O)c3ccc4c(c3O[C@@H]1CO2)C=CC(C)(C)O4,–,inactive: -6.98%
CCOc1ccc(CN2CCNC(=O)C2CC(=O)NCc2ccccn2)cc1 (centres undefined),"inconclusive: 39.8 µM [inhibitor, single point]",–
Clc1ccccc1CN1CCN(/N=C/C=C\c2ccco2)CC1,"inconclusive: 22.4 µM [inhibitor, single point]",–
CCOCCCNC(=O)C(c1ccc(C)cc1)N(Cc1cccs1)C(=O)c1ccccc1O (centres undefined),–,inactive: 0.761%
Cn1c(C(=O)NCCCN2CCCCCC2)cc2c(=O)n(C)c3ccccc3c21,"inconclusive: 25.1 µM [inhibitor, partial curve]",–
COc1ccc(CC(=O)NNC(=O)Cc2ccc(OC)cc2)cc1,–,inactive: 2.26%
O=C(NCCN1CCOCC1)c1ccc2c(c1)N(Cc1ccc(Cl)cc1)CCS2,"inconclusive: 31.6 µM [inhibitor, partial curve]",–
COC(=O)c1cc(=O)n(Cc2cccs2)c(=NCc2cccs2)s1,–,inactive: 8.13%
O=C1C(SC(F)(F)C(F)F)=C(C(F)(F)F)OC2C3C=CC(C3)C12 (centres undefined),"inconclusive: 39.8 µM [inhibitor, single point]",–
Cc1ccc(Nc2cc(C)c3ccc(O)cc3n2)cc1C,"inconclusive: 35.5 µM [inhibitor, single point]",–
Cc1ccc(-c2nn(-c3ccccc3)cc2C2CC(c3cccs3)=NN2C(=O)CCCC(=O)O)cc1 (centres undefined),"inconclusive: 28.2 µM [inhibitor, partial curve]",–
O=C(OC1CCOC1=O)c1cc(-c2cccs2)nc2ccccc12 (centres undefined),"inconclusive: 28.2 µM [inhibitor, partial curve]",–
C=CCn1c(/N=C/c2ccc(N(C)C)cc2)nc2ccccc21,–,inactive: -1.57%
CCCCNC(=O)CSc1nc2cc3c(cc2c(=O)n1CCCN(CC)CC)OCO3,"inconclusive: 39.8 µM [inhibitor, single point]",–
Cc1ncc(CO)c(/C=N/NC(=S)Nc2cccc(Cl)c2)c1O,"inconclusive: 28.2 µM [inhibitor, partial curve]",–
Cc1cc(NC(=O)Cn2nnc3sc4c(c3c2=O)CCC(C(C)(C)C)C4)no1 (centres undefined),"inconclusive: 39.8 µM [inhibitor, single point]",–
CCN1CCN(c2cc(C)c3cc(NC(=O)c4cncc(Br)c4)ccc3n2)CC1,–,inactive: -11.5%

Compound,Potency,"activity change, negative = inhibition"
CC(CC(=O)O)Nc1ccccc1O (centres undefined),active: 20 µM,–
CCOC(=O)c1ccc(NC(=S)N(CCCN(CC)CC)Cc2ccco2)cc1,–,inactive: -8.36%
COC(=O)c1ccc(CSc2nc3c(cnn3-c3ccc(F)cc3)c(=O)[nH]2)o1,"inconclusive: 35.5 µM [inhibitor, single point]",–
CCC1CCCCN1CCCNC(=O)c1cn(CC(C)C)c(=O)c2cc(OC)c(OC)cc12 (centres undefined),"inconclusive: 28.2 µM [inhibitor, single point]",–
O=C1CC(N2CCN(c3ccc(F)cc3)CC2)C(=O)N1Cc1cccs1 (centres undefined),–,inactive: -0.801%
CC(NC(=O)c1ccccc1NC(=O)c1ccco1)c1ccccc1 (centres undefined),"inconclusive: 39.8 µM [inhibitor, single point]",–
O=C(Nc1nnc(C2CC2)s1)c1ccc(Cl)c(S(=O)(=O)N2CCc3ccccc3C2)c1,"inconclusive: 35.5 µM [inhibitor, single point]",–
Cc1c(C(=O)N2CCCCCC2)oc2ccccc12,–,inactive: 6.27%
COc1cc2[nH]c(=O)n(CCCCCC(=O)N3CCN(c4ccccc4)CC3)c(=O)c2cc1OC,"inconclusive: 28.2 µM [inhibitor, single point]",–
Cc1cccc(C(=O)N(Cc2nc3ccccc3c(=O)[nH]2)C2CCCCC2)c1,–,inactive: -2.92%
COc1cccc(NC(=O)CN2C(=O)C3(OCCCO3)c3ccccc32)c1,–,inactive: -6.56%
Cc1ccccc1Nc1c(-c2cccnc2)nc2ccccn12,"inconclusive: 22.4 µM [inhibitor, single point]",–
CCOC(=O)C1=C(C)NC2=C(C(=O)CC(C)(C)C2)C1c1cccc(C)n1 (centres undefined),"inconclusive: 6.31 µM [inhibitor, single point]",–
CN(C)CCCNS(=O)(=O)c1ccc(N2CCC(c3ccc(Cl)cc3)=N2)cc1,"inconclusive: 28.2 µM [inhibitor, partial curve]",–
Cn1cnnc1Sc1ccc(/C=C(\CC(=O)O)c2nc3ccccc3s2)cc1[N+](=O)[O-],–,inactive: -1.72%
O=C(Nc1ccccc1-c1nnc(SCc2ccccc2Cl)o1)c1ccccc1,"inconclusive: 28.2 µM [inhibitor, single point]",–
CCn1cc(C(=O)NCCCOC(C)C)c2cc(OC)c(OC)cc2c1=O,"inconclusive: 39.8 µM [inhibitor, partial curve]",–
Cc1ccc(-c2nnn(CC(=O)N(Cc3ccccc3)C(C(=O)NC3CCCC3)c3ccncc3)n2)o1 (centres undefined),–,inactive: 8.83%
COc1cccc2oc(-c3ccco3)cc(=O)c12,"inconclusive: 31.6 µM [inhibitor, partial curve]",–
Cc1cc(C)cc(Nc2nc3ccccc3c(=O)[nH]2)c1,"inconclusive: 39.8 µM [inhibitor, single point]",–
COc1ccc(S(=O)(=O)N2CCN(c3ccc4nnc(-c5ccccc5)n4n3)CC2)cc1,"inconclusive: 35.5 µM [inhibitor, single point]",–
CCCCn1c(NC(=O)c2ccc(Br)o2)c(S(=O)(=O)c2ccccc2)c2nc3ccccc3nc21,"inconclusive: 28.2 µM [inhibitor, partial curve]",–

# From PubChem BioAssay AID2147 (National Center for Advancing Translational Sciences (NCATS), 2009)
